Drawing on paper PMC520748, this text covers binding for 3 substances.

No constants are given. Whether binding was seen depends on the method and setting. For some of these results: Binding seen in cells or lysates may run through a third protein. Some binding calls cover weakened binding; strength is not graded here. For some of these results: Where a sequence is shown, tags or fusion partners need not be part of it.

In experiment [1] the target is T1, FKBP13 without signal peptide fused to the LexA-DBD (pBTM-FKBP13w/oS) (UniProt P26885).
T1 sequence: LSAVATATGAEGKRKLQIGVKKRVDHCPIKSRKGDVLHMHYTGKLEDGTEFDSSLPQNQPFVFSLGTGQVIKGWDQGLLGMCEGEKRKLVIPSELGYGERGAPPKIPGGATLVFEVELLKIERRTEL
Put plainly: two-hybrid; screen in yeast L40: LexA-DBD-FKBP13w/oS as bait, human fetal liver cDNA library in pACT2 as prey; selection for histidine prototrophy, β-gal activity, retransformation with the bait; 30°C.

For experiment [2], the target named is T1, FKBP13 without signal peptide fused to the LexA-DBD (pBTM-FKBP13w/oS). Put plainly: two-hybrid; yeast L40 cotransformed with pGAD-C1q-Cw/oS and pBTM-FKBP13w/oS, incubated in the presence of FK506 (up to 100 μM); β-gal activity.
Experiment [3] has as its target T2, FKBP25 fused in frame to the DBD of LexA (pBTM-FKBP25) (UniProt Q00688).
T2 sequence: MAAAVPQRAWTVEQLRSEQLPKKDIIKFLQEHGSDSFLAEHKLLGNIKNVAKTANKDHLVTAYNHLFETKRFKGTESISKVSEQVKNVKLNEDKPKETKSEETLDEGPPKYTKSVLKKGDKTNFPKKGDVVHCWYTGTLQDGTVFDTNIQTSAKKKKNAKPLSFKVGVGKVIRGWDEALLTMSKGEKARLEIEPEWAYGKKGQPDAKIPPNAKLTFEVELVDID
Put plainly: two-hybrid; yeast L40 cotransformed with pGAD-C1q-Cw/oS and LexA-DBD fusions of immunophilins; histidine prototrophy and β-gal activity.

Experiment [4] concerns the target T3, FKBP52 fused in frame to the DBD of LexA (pBTM-FKBP52) (UniProt Q02790).
T3 sequence: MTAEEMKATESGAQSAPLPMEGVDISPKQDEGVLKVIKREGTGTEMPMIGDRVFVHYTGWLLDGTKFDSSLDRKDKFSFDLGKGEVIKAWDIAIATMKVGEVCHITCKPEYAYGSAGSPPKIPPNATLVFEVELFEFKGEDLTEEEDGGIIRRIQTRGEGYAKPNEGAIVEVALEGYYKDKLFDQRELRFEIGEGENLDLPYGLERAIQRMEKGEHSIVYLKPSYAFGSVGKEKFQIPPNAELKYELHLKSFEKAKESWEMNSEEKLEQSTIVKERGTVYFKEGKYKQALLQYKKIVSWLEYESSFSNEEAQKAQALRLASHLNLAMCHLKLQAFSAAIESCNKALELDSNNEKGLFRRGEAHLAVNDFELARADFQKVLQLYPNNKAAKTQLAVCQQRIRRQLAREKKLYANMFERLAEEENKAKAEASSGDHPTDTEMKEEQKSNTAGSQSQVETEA
The experiment is described as above.

In experiment [5] the target is T1, FKBP13 without signal peptide fused to the LexA-DBD (pBTM-FKBP13w/oS). The experiment is described as above.
Experiment [6] concerns the target FKBP12 fused in frame to the DBD of LexA (pBTM-FKBP12) (UniProt P62942). Described as above.
The target of experiment [7] is T4, FKBP13w/oS fused in frame via a 15 amino acid peptide linker to aa 198 to 287 of β-lactamase (pCDNA-FKBP13linkBla[2]) (UniProt P26885).
T4 sequence: T1 sequence
Put plainly: split reporter; β-lactamase protein complementation assay: INS-1 cells cotransfected, lysed after two days, hydrolysis of nitrocefin measured in the supernatant.

Consider “clone A3: cDNA of the C-chain of complement C1 corresponding to amino acids 122 to 217 (library clone in pACT2) (from UniProt P02747 150-245) (domain or fragment)”, for which the binding result in experiment [1] was “binds”.

Regarding “full length C1q-C-Gal4AD hybrid protein lacking a 26 amino acids signal peptide (pGAD-C1q-Cw/oS) (from UniProt P02747 27-245)”, the binding entry in experiment [2] was “binds”; in experiment [3], “no binding”; in experiment [4], “no binding”; in experiment [5] it was “binds”; in experiment [6], “no binding”.

Consider “β-lactamase aa 21 to 196 fused in frame via a 15 amino acid peptide linker to C1q-Cw/oS (pCMVSPORT-Bla[1]M182TlinkC1q-Cw/oS) (from UniProt P02747 27-245)”, for which the binding result in experiment [7] was “binds”.
